Some of the results follow.
Assays:
Assay in all cases: glycan array binding signal (z-score within array); higher = stronger binding
Conditions in all cases: glycan notation: IUPAC condensed, linker removed
Fuc(a1-2)Gal = target: Fuc(a1-2)Gal
Procedure, shortened: (§1)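 The binding signal is a Z-score computed within each array and averaged over linkers. Arrays of the same protein sequence at different concentrations or buffers were also averaged together. Data originate from 3228 arrays in the Consortium for Functional Glycomics database, kept only where the protein sequence was available.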

Fuc(a1-2)Gal(b1-3)GalNAc = target: Fuc(a1-2)Gal(b1-3)GalNAc
Procedure, shortened: as §1

[1] = target: Fuc(a1-2)Gal(b1-3)GalNAc(a1-3)[Fuc(a1-2)]Gal(b1-4)Glc
Procedure, shortened: as §1

[2] = target: Fuc(a1-2)Gal(b1-3)GalNAc(a1-3)[Fuc(a1-2)]Gal(b1-4)GlcNAc
Procedure, shortened: as §1

[3] = target: Fuc(a1-2)Gal(b1-3)GalNAc(b1-3)Gal
Procedure, shortened: as §1

[4] = target: Fuc(a1-2)Gal(b1-3)GalNAc(b1-3)Gal(a1-4)Gal(b1-4)Glc
Procedure, shortened: as §1

[5] = target: Fuc(a1-2)Gal(b1-3)GalNAc(b1-3)Gal(b1-4)Glc
Procedure, shortened: as §1

[6] = target: Fuc(a1-2)Gal(b1-3)GalNAc(b1-4)[Neu5Ac(a2-3)]Gal(b1-4)Glc
Procedure, shortened: as §1

Fuc(a1-2)Gal(b1-3)GlcNAc = target: Fuc(a1-2)Gal(b1-3)GlcNAc
Procedure, shortened: as §1

[7] = target: Fuc(a1-2)Gal(b1-3)GlcNAc(b1-2)Man(a1-3)[Fuc(a1-2)Gal(b1-3)GlcNAc(b1-2)Man(a1-6)]Man(b1-4)GlcNAc(b1-4)GlcNAc
Procedure, shortened: as §1

[8] = target: Fuc(a1-2)Gal(b1-3)GlcNAc(b1-2)Man(a1-3)[Fuc(a1-2)Gal(b1-3)GlcNAc(b1-2)Man(a1-6)]Man(b1-4)GlcNAc(b1-4)[Fuc(a1-6)]GlcNAc
Procedure, shortened: as §1

[9] = target: Fuc(a1-2)Gal(b1-3)GlcNAc(b1-3)Gal(b1-4)Glc
Procedure, shortened: as §1

[10] = target: Fuc(a1-2)Gal(b1-3)GlcNAc(b1-3)GalNAc
Procedure, shortened: as §1

[11] = target: Fuc(a1-2)Gal(b1-3)GlcNAc(b1-3)[Fuc(a1-2)Gal(b1-3)GlcNAc(b1-6)]GalNAc
Procedure, shortened: as §1

[12] = target: Fuc(a1-2)Gal(b1-3)GlcNAc(b1-3)[Gal(b1-4)GlcNAc(b1-6)]Gal(b1-4)Glc
Procedure, shortened: as §1

[13] = target: Fuc(a1-2)Gal(b1-3)GlcNAc(b1-3)[Neu5Ac(a2-6)Gal(b1-4)GlcNAc(b1-6)]Gal(b1-4)Glc
Procedure, shortened: as §1

[14] = target: Fuc(a1-2)Gal(b1-3)GlcNAc6S
Procedure, shortened: as §1

[15] = target: Fuc(a1-2)Gal(b1-3)[Fuc(a1-4)]GlcNAc
Procedure, shortened: as §1

[16] = target: Fuc(a1-2)Gal(b1-3)[Fuc(a1-4)]GlcNAc(b1-2)Man(a1-3)[Fuc(a1-2)Gal(b1-3)[Fuc(a1-4)]GlcNAc(b1-2)Man(a1-3)]Man(b1-4)GlcNAc(b1-4)GlcNAc
Procedure, shortened: as §1

[17] = target: Fuc(a1-2)Gal(b1-3)[Fuc(a1-4)]GlcNAc(b1-2)Man(a1-3)[Fuc(a1-2)Gal(b1-3)[Fuc(a1-4)]GlcNAc(b1-2)Man(a1-6)]Man(b1-4)GlcNAc(b1-4)[Fuc(a1-6)]GlcNAc(b1-4)[Fuc(a1-6)]GlcNAc
Procedure, shortened: as §1

[18] = target: Fuc(a1-2)Gal(b1-3)[Fuc(a1-4)]GlcNAc(b1-3)[Fuc(a1-3)[Gal(b1-4)]GlcNAc(b1-6)]Gal(b1-4)Glc
Procedure, shortened: as §1

[19] = target: Fuc(a1-2)Gal(b1-3)[Fuc(a1-4)]GlcNAc(b1-3)[Gal(b1-4)GlcNAc(b1-6)]Gal(b1-4)Glc
Procedure, shortened: as §1

[20] = target: Fuc(a1-2)Gal(b1-4)Fuc(a1-3)]GlcNAc(b1-2)Man(a1-3)[Fuc(a1-2)Gal(b1-4)[Fuc(a1-3)]GlcNAc(b1-2)Man(a1-6)]Man(b1-4)GlcNAc(b1-4)GlcNAc
Procedure, shortened: as §1

Fuc(a1-2)Gal(b1-4)Glc = target: Fuc(a1-2)Gal(b1-4)Glc
Procedure, shortened: as §1

Fuc(a1-2)Gal(b1-4)Glc6S = target: Fuc(a1-2)Gal(b1-4)Glc6S
Procedure, shortened: as §1

Fuc(a1-2)Gal(b1-4)GlcNAc = target: Fuc(a1-2)Gal(b1-4)GlcNAc
Procedure, shortened: as §1

[21] = target: Fuc(a1-2)Gal(b1-4)GlcNAc(b1-2)Man
Procedure, shortened: as §1

[22] = target: Fuc(a1-2)Gal(b1-4)GlcNAc(b1-2)Man(a1-3)[Fuc(a1-2)Gal(b1-4)GlcNAc(b1-2)Man(a1-6)]Man(b1-4)GlcNAc(b1-4)GlcNAc
Procedure, shortened: as §1

[23] = target: Fuc(a1-2)Gal(b1-4)GlcNAc(b1-2)Man(a1-3)[Fuc(a1-2)Gal(b1-4)GlcNAc(b1-2)Man(a1-6)]Man(b1-4)GlcNAc(b1-4)[Fuc(a1-6)]GlcNAc
Procedure, shortened: as §1

[24] = target: Fuc(a1-2)Gal(b1-4)GlcNAc(b1-2)[Fuc(a1-2)Gal(b1-4)GlcNAc(b1-4)]Man(a1-3)[Fuc(a1-2)Gal(b1-4)GlcNAc(b1-2)Man(a1-6)]Man(b1-4)GlcNAc(b1-4)GlcNAc
Procedure, shortened: as §1

B1: Epa7 (Candida glabrata), Q6DTM6_CANGB (protein)
chain: MGSSHHHHHHSSGLVPRGSHMKDDYSSFLSNNNLGWTDPTEFPLGCSPNVTTPKNGLSMELYSYDLRKNGSYPCWDAAYLDPNYPRTGYKSHRLLAKVDGVTGNINFYYHATKGCTPEIDHLPASYNYPKPLTMTNFTMLLYGYFKPKVTGYHTFTISADDLLFVNFGAGNAFDCCKRESSADDFGNYQAYAVWGSQTAKDDLTVHLDAGLYYPIRIFFNNREYDAELSLTLKTESDSNPVIDFSDYFYSFDDTKDGCPGLVSYDTS
With B1 the “glycan array binding signal (z-score)” value (Fuc(a1-2)Gal) was -0.256, the “glycan array binding signal (z-score)” value (Fuc(a1-2)Gal(b1-3)GalNAc) was -0.169 and the “glycan array binding signal (z-score)” value [1] was -0.214. The “glycan array binding signal (z-score)” value [2] was 0.402, the “glycan array binding signal (z-score)” value [3] was -0.144 and the “glycan array binding signal (z-score)” value [4] was -0.195. The “glycan array binding signal (z-score)” value [5] was -0.272, the “glycan array binding signal (z-score)” value [6] was -0.072 and the “glycan array binding signal (z-score)” value (Fuc(a1-2)Gal(b1-3)GlcNAc) was -0.221. The “glycan array binding signal (z-score)” value [7] was -0.235, the “glycan array binding signal (z-score)” value [8] was -0.234 and the “glycan array binding signal (z-score)” value [9] was -0.233. For the same binder, the “glycan array binding signal (z-score)” value [10] was -0.23, the “glycan array binding signal (z-score)” value [11] was -0.137 and the “glycan array binding signal (z-score)” value [12] was -0.125. For the same binder, the “glycan array binding signal (z-score)” value [13] was -0.206, the “glycan array binding signal (z-score)” value [14] was -0.09 and the “glycan array binding signal (z-score)” value [15] was -0.254. For the same binder, the “glycan array binding signal (z-score)” value [16] was -0.161, the “glycan array binding signal (z-score)” value [17] was -0.188 and the “glycan array binding signal (z-score)” value [18] was -0.179. For the same binder, the “glycan array binding signal (z-score)” value [19] was -0.125, the “glycan array binding signal (z-score)” value [20] was -0.114 and the “glycan array binding signal (z-score)” value (Fuc(a1-2)Gal(b1-4)Glc) was -0.211. The “glycan array binding signal (z-score)” value (Fuc(a1-2)Gal(b1-4)Glc6S) was -0.249, the “glycan array binding signal (z-score)” value (Fuc(a1-2)Gal(b1-4)GlcNAc) was -0.255 and the “glycan array binding signal (z-score)” value [21] was -0.228. The “glycan array binding signal (z-score)” value [22] was -0.235, the “glycan array binding signal (z-score)” value [23] was -0.234 and the “glycan array binding signal (z-score)” value [24] was -0.23.

From the supplement of paper PMC8728848
